Test results reported in PubChem BioAssay AID463173 (ICCB-Longwood Screening Facility, Harvard Medical School, 2010).
About 4,300 (8.3%) of roughly 52,000 compounds were called active. Rule as the data show it: active = survival mostly below about 52% (no sharp cut-off); inactive = mostly above about 56%. This is one part of the list.

These molecules were tested on DeltatarO mutant (assay: growth inhibition of S. aureus wild type versus tarO mutant, primary screen, teichoic acid synthesis inhibitors, RN4220, OD600 (AID 463173)). Conditions: OD600, 18 h, active compounds read low, screened at 18.75 µg/mL (by protocol).

Structure (SMILES)	survival
COc1ccc2nc(SCC(=O)N3CCCCC3)c(C#N)cc2c1	inactive: 90%
COc1ccc(CN2C(=O)c3oc4ccccc4c(=O)c3C2c2ccc(O)cc2)cc1 (stereo not given)	inactive: 82%
CC(C)C(Nc1ccc(C(F)(F)F)cn1)C(=O)O (stereo not given)	inactive: 74%
O=C(Nc1cccc(-c2nc3cc(Cl)ccc3o2)c1)c1cc([N+](=O)[O-])ccc1N1CCOCC1	active: 40%
CCN1/C(=C2/SC(=S)N(C)C2=O)Sc2ccc(S(=O)(=O)C(F)(F)F)cc21	inactive: 72%
Cc1ccc(CN2CCC(CNc3ncnc4onc(-c5ccc(F)cc5)c34)CC2)cc1	active: -2%
Cc1cc(C)c(NC(=O)CSc2nc3ccccc3nc2N2CCCCC2)c(C)c1	active: 39%
O=C(NCc1cccc(Cl)c1)c1cc2ccc3cccnc3c2[nH]1	inactive: 70%
CC(C)COc1ccc(C(=O)Nc2ccc(S(=O)(=O)Nc3ncccn3)cc2)cc1	inactive: 83%
CCC(C(=O)Nc1cccc(Cl)c1C)n1nc(-c2ccc(C)cc2)ccc1=O (stereo not given)	active: 41%
Nc1nc(C2CC(=O)OC23CCCCC3)cs1 (stereo not given)	inactive: 98%
CC(C)COc1cccc(C(=O)Nc2ccc(-c3nc4ncccc4o3)cc2)c1	inactive: 65%
CCCc1nc2sc3c(N4CCC(C)CC4)ncnc3c2c2c1CCCC2	inactive: 61%
CC1CCN(C(=O)Cn2cc(SCC(=O)NCc3ccccc3Cl)c3ccccc32)CC1	inactive: 64%
O=C(Cn1cnc2c(oc3ccccc32)c1=O)Nc1ccccc1C(F)(F)F	inactive: 87%
COc1ccc(OC)c(NC(=O)CN(C)S(=O)(=O)c2ccc(C(=O)N3CCOCC3)s2)c1	inactive: 87%
Cc1ccc(-c2nnc(Nc3cccc(Cl)c3)c3ccccc23)cc1S(=O)(=O)N1CCOCC1	inactive: 85%
COc1ccccc1NC(=O)Cn1c(=O)n(Cc2ccccc2)c(=O)c2sc3ccccc3c21	active: 68%
COc1ccc(C)cc1NC(=O)N(Cc1ccc(C)o1)C1CCN(C(C)=O)CC1	active: 8%
O=C(Nc1ccc(C(=O)OCc2cc(=O)n3c4c(sc3n2)CCCC4)cc1)c1ccccc1	active: 25%
N#CC1=C(N)OC2=C(C(=O)CCC2)C1c1c(F)cccc1Cl (stereo not given)	inactive: 74%
CC(=O)c1ccc(NC(=O)c2noc3c2CCc2ccccc2-3)cc1	inactive: 74%
Cc1cc(NC(=O)CN2CCCCC2)no1	inactive: 94%

Structure (SMILES)	survival
COc1ccc(C2C(C(N)=O)=C(C)Nc3nc(CCCO)nn32)c(OC)c1 (stereo not given)	inactive: 88%
Cc1cccc(N2CCN(S(=O)(=O)c3ccc4c(c3)CCCN4C(=O)C3CCC3)CC2C)c1 (stereo not given)	inactive: 77%
Oc1ccc(Oc2ncc(Cl)cc2Cl)cc1	inactive: 71%
Cn1c(=O)n(-c2ccc(Br)cc2F)c(=O)c2sc3ccccc3c21	inactive: 93%
COc1ccc(Cn2c(=O)[nH]c3cc(C(=O)N4CCN(c5cccc(Cl)c5)CC4)ccc3c2=O)cc1	inactive: 59%
O=C(NC1CCCCCC1)c1ccc2c(c1)sc1nc(-c3ccc(F)cc3)cn12	inactive: 85%
CCOc1ccc(NC(=O)CN2C(=O)C(c3ccccc3)=NC23CCC(C)CC3)cc1 (stereo not given)	inactive: 62%
COc1cc2c(=O)c(S(=O)(=O)c3ccc(F)cc3)cn(Cc3ccc(Cl)cc3)c2cc1OC	inactive: 73%
CCOC(=O)c1ccc(CN(Cc2ccc(F)cc2)S(=O)(=O)c2cc(C(=O)Nc3cccc(C(F)(F)F)c3)ccc2F)cc1	inactive: 67%
Clc1ccc(CCNC(c2nnc(-c3ccccc3)o2)c2ccccc2Cl)cc1 (stereo not given)	active: -3%
CC(C)NC(=O)C1CCN(C(=O)N2CCOc3ccc(Cl)cc32)CC1	inactive: 50%
Cc1ccc(-c2noc(-c3ccc(N4CCCCC4)c([N+](=O)[O-])c3)n2)cc1	inactive: 69%
CN1C(=O)c2ccccc2Sc2ccc(NC(=O)N3CCN(c4ccccc4F)CC3)cc21	inactive: 82%
Cc1cc(C)c2c(-n3cccc3)c(C(=O)NCCCN3CCCCC3C)sc2n1 (stereo not given)	inactive: 93%
COc1cc(-c2noc(-c3cc(C(C)C)[nH]n3)n2)cc(OC)c1OC	inactive: 84%
CC(=O)Nc1nonc1-c1nnc(SCc2ccc(Cl)cc2)n1C	active: 42%
CCOC(=O)c1c(NC(=O)c2cc(=O)c3c(C)cc(C)cc3o2)sc(C(C)=O)c1C	inactive: 60%
Cc1nn(S(=O)(=O)c2ccc(Cl)cc2)c(C)c1S(=O)(=O)N1CCCCCC1	inactive: 79%
CNC(=O)COc1ccc(NC(=O)c2ccc(-c3nn(C)c(=O)c4ccccc34)cc2)cc1	inactive: 75%
CC1(C)Cc2ccccc2-c2nnc(SCC(=O)N3CCCCC3)n21	inactive: 61%
CCn1c(SCc2ccccc2Cl)nc(=O)c2c(C(=O)OC)cc(C3CC3)nc21	inactive: 77%
O=C(Nc1ccc(F)cc1)c1cccn1-c1nnc(N2CCCCC2)s1	inactive: 99%
CCOC(=O)c1c(C)oc2nc(C)nc(N3CCN(c4ccccc4)CC3)c12	inactive: 83%

Structure (SMILES)	survival
COc1ccccc1N1CCN(C(=O)CCS(=O)(=O)c2cc(Br)cc3c2N(C(=O)C2CC2)CC3)CC1	inactive: 83%
O=C(CSc1nnc(CNC(=O)c2ccccc2)n1-c1cccc(Cl)c1)Nc1ccccc1F	inactive: 83%
OC(CC#CCN1CCOCC1)(c1ccccc1)c1ccccc1	inactive: 83%
COc1ccc2oc(=O)c(C(=O)NCCc3c(C)[nH]c4ccc(Br)cc34)cc2c1	inactive: 45%
CCCNC(=O)c1cnc2sc(N3CCCCC3)nn2c1=O	inactive: 99%
NNC(=O)C(NC(=O)c1ccccc1)c1n[nH]c(=O)c2ccccc12 (stereo not given)	inactive: 91%
Cc1cn2c(=O)cc(COc3ccccc3NC(=O)c3ccccc3C)nc2s1	inactive: 94%
Cc1ccc(-c2csc(/C(C#N)=C/c3ccccc3Cl)n2)cc1	active: 21%
Cc1ccc2cccc(NC(=O)c3ccc(-c4ccc(Br)cc4)o3)c2n1	active: 59%
Cc1cc(=O)c2cc(C(=O)Nc3ccccc3)ccc2[nH]1	inactive: 88%
CCc1ccc(-n2c(-c3ccccc3)c(C)n3c4c(=O)n(C)c(=O)n(C)c4nc23)cc1	inactive: 135%
Oc1ccccc1C1=Nc2ccccc2N=C(c2ccco2)C1	inactive: 75%
Cc1ccc(OCC(=O)Nc2ccc(S(=O)(=O)Nc3ncccn3)cc2)c(C(C)(C)C)c1	active: 47%
CN1CCN(CCCNC(=O)c2cnn(-c3ccccc3)c2-n2cccc2)CC1	inactive: 87%
O=C(c1ccc(F)cc1)C1CCN(S(=O)(=O)c2ccc(F)cc2)CC1	inactive: 95%
O=c1c2sc3ccccc3c2n(Cc2cccc(C(F)(F)F)c2)c(=O)n1Cc1ccco1	inactive: 70%
O=C(NCCN1CCOCC1)c1c(Cl)cccc1Cl	inactive: 102%
CC(C)(C)C(=O)CSc1nc2ccsc2c(=O)n1Cc1ccccc1F	inactive: 126%
O=C(NCc1cccc(F)c1)C1CCN(C(=O)c2sccc2-n2cccc2)CC1	inactive: 121%
O=C(Nc1cc(NC(=O)c2ccccc2Cl)ccc1Cl)c1ccccc1	inactive: 65%
CCOc1ccccc1CNC(=O)c1ccc2nc(Cc3ccc(OC)cc3)oc2c1	inactive: 73%
COc1ccc(N2CCN(C(=O)CCNS(=O)(=O)c3ccc4c(c3)CCN4C(=O)C3CC3)CC2)cc1	inactive: 75%
COc1ccc(CNC(=O)c2ccc(Cn3c(=O)c4cccn4c4cccnc43)cc2)cc1OC	inactive: 67%

Structure (SMILES)	survival
CCOc1ccccc1NC(=O)N1CCCC(c2nc3c(nnn3Cc3ccc(C)cc3)c(=O)[nH]2)C1 (stereo not given)	inactive: 82%
CCOCCCNC(=O)NC(CCC(C)C)c1c(-n2cccc2)sc2c1CCN(C)C2 (stereo not given)	inactive: 117%
N#CCSc1ncccc1-c1nc2ccccc2[nH]1	inactive: 100%
COc1ccc(CNC(=O)CN2C(=O)COc3ccc(S(=O)(=O)NC4CCCC4)cc32)cc1	inactive: 99%
COc1ccc(CCNC(=O)CCc2c(C)nc3cc(-c4ccccc4OC)nn3c2C)c(OC)c1	active: 54%
CCOC(=O)N1CCN(c2ncc3c(n2)CC(c2ccccc2O)CC3=O)CC1 (stereo not given)	inactive: 85%
COc1ccc(/C=C\c2onc(C)c2S(=O)(=O)N2CCC(C(=O)Nc3cccc(Cl)c3)CC2)cc1	inactive: 57%
COc1ccccc1NC(=O)CSc1nnc2c3ccccc3n(C(C)C)c2n1	active: 33%
CC(=O)n1cc(C2C(=O)CC(C)(C)CC2=O)c2ccccc21	inactive: 79%
COc1cccc(C(=O)N2CCc3c([nH]c4ccccc34)C2c2ccc(SC)cc2)c1 (stereo not given)	inactive: 124%
Cc1ccc(Nc2nnc(-c3cc4c(ccc5ccccc54)oc3=O)s2)cc1	inactive: 122%
CNC(=O)C1CCC(Cn2c(=O)c3sccc3n(CC(=O)NCc3cccc(OC)c3)c2=O)CC1 (stereo not given)	inactive: 73%
Cc1cc(C)cc(Nc2cc(C)nc3nncn23)c1	inactive: 53%
Cc1cccc(-c2nc3scc(CCNC(=O)c4ccc(Br)o4)n3n2)c1	inactive: 80%
CCC(CC)C(=O)Nc1ccc(-c2cn3cccnc3n2)cc1	inactive: 91%
Cc1ccc(CNc2ncnc3c2nc2n3CCCC2)cc1	inactive: 92%
CCN(C(=O)CSc1nc2ccccc2n1CC(=O)NCc1ccc(OC)cc1)c1ccccc1	inactive: 73%
O=C(O)c1cccn2c(=O)c3ccccc3nc12	inactive: 93%
CCOC(=O)c1ccc(NC(=O)CN2c3ccccc3S(=O)(=O)c3ccccc32)cc1	inactive: 117%
CCOC(=O)c1cc(-c2ccccc2)n(CCC(=O)NC2CCCCC2)c1C	inactive: 74%
Cc1ccc2nc(CSc3nnc(NC(=O)c4cccc(Br)c4)s3)cc(=O)n2c1	inactive: 72%
